The record followed here is PMC4336329 (PLoS ONE, 2015).

SMILES strings stand for the structures. The whole screen tested about 310,000 compounds, of which about 14,000 (4.5%) showed an effect of 50% or more. The effect is printed as a negative number. The list shows a part of the results.
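Also: peak tail current of the secondary pulse compared with the same well before compound.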

Chain of human ether-à-go-go-related gene (hERG) potassium channel (Q12809 whole entry, looked up): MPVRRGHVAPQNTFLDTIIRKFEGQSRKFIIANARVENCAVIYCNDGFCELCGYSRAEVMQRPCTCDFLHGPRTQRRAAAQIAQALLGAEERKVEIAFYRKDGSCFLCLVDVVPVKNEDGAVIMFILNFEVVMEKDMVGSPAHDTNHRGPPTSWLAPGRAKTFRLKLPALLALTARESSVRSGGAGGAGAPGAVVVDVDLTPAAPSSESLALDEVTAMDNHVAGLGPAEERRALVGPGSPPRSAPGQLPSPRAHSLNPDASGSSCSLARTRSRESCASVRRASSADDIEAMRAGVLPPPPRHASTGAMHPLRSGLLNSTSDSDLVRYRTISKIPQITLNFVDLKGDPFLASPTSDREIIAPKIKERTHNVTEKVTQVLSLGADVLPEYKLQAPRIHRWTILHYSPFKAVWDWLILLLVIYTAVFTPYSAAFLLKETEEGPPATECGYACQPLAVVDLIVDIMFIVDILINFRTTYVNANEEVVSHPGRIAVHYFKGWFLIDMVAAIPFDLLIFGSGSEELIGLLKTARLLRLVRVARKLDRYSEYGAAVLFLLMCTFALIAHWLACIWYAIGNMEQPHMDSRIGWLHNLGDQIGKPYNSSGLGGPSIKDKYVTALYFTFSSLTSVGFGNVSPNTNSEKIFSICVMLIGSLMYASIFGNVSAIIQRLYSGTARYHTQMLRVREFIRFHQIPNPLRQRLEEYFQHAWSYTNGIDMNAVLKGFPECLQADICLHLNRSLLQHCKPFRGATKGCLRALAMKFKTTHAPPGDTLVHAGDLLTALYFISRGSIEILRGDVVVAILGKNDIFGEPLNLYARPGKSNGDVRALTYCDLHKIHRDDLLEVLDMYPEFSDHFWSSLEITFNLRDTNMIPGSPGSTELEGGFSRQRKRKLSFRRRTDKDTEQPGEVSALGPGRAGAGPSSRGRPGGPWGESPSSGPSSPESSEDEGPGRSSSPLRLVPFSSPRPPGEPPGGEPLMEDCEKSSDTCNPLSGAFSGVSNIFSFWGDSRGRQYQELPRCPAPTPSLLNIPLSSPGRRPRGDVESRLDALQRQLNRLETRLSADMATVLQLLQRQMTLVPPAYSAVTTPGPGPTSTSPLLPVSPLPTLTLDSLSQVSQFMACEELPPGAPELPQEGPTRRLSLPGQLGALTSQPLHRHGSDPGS

The assay has as its target human ether-à-go-go-related gene (hERG) potassium channel (human, UniProt Q12809). Nature of the assay: primary screen, population patch clamp on CHO cells stably expressing hERG.
Turning to `O=C(CSc1nc2ccc(NC(=O)C3CCCCC3)cc2s1)NCC1CCCO1` (stereo not drawn), the “hERG current change (%, negative = inhibition) at 10uM” value came to 2.42%.
Take `COCCNc1c([N+](=O)[O-])c(=O)n(-c2ccccc2)c2ccccc12`: the “hERG current change (%, negative = inhibition) at 10uM” value is -25.2%.
The same measure for `CN1CC=C2C(C#N)=C(N)C(C#N)(C#N)C(c3cccc(Cl)c3Cl)C2C1` (stereo not drawn): -7.56%; for `Cc1cc(NC(=O)C(C)SCC(=O)NCc2ccc(F)cc2)no1` (stereo not drawn): -0.245%; for `COc1cc(/C(C)=N\NC(N)=S)cc(OC)c1OC`: -17.5%.
For `CCOc1cc2[nH]c(=O)n(CCCCCC(=O)NCc3ccco3)c(=O)c2cc1OCC` the value was 0.762%; for `CC(OC(=O)C1CSC2(C)CCC(=O)N12)C(=O)Nc1ccc(F)cc1` (stereo not drawn), 4.87%.
For `CCCCc1ccc(NC(=O)Nc2c(C)n(C)n(-c3ccccc3)c2=O)cc1` the value was 2.05%; for `O=C(NC12CC3CC(CC(C3)C1)C2)C1CCCN1C(=O)NC1CCCCC1` (stereo not drawn), 13%; for `Cn1c(-c2ccc(F)cc2)cc2onc(-c3ccccc3Cl)c2c1=O`, 2.89%.
Consider `COc1ccc(-c2oc3c4c(cc(OC)c3c(=O)c2CC=C(C)C)OC(C)(C)C=C4)c(OC)c1`, for which the “hERG current change (%, negative = inhibition) at 10uM” value is listed as 12.6%.
Turning to `Cc1cc(NC(=O)CCC(=O)N(c2ccccc2)C2(C(=O)NC3CCCCC3)CCCC2)no1`, the “hERG current change (%, negative = inhibition) at 10uM” value is recorded as -0.368%.
On to `O=C1C=CC(=C(c2ccc(O)cc2)c2ccc(O)cc2)C=C1`, for which the “hERG current change (%, negative = inhibition) at 10uM” value was found to be 4.78%.
The same measure for `CCCC1C(C(=O)OCC)=C(C)NC(C)=C1C(=O)OCC`: 10.7%; for `Cc1cccc(NC(=O)CN(CC2CCCO2)C(=O)c2oc3ccc(F)cc3c2C)c1C` (stereo not drawn): -34.7%; for `COCCCNCCCCOc1ccccc1-c1ccccc1.O=C(O)C(=O)O`: -43.4%.
For `CS(=O)(=O)c1ccc(C(=O)OCC(=O)c2ccc(Cl)s2)cc1` the value was -6.47%; for `O=C(Cc1c(Cl)cccc1Cl)Nc1cccnc1`, 17.7%.
The same measure for `O=C(CCCC(=O)c1ccccc1)NCCc1ccccc1`: 7.95%.
For `C/C(=N\NC(=O)C1CCCC1)c1ccc(Cl)cc1Cl`, the “hERG current change (%, negative = inhibition) at 10uM” value stood at 12.6%.
On to `O=C1c2ccccc2C(=O)N1CC(=O)N1c2ccccc2CCc2ccccc21`, for which the “hERG current change (%, negative = inhibition) at 10uM” value is 6.3%.
Turning to `CC1CCC(CN2CCN=C2N(C)C)CC1` (stereo not drawn), the “hERG current change (%, negative = inhibition) at 10uM” value is on record as -1.65%.
Regarding `Cc1nc2ccccc2cc1C(=O)N/N=C/c1cccc([N+](=O)[O-])c1`, the “hERG current change (%, negative = inhibition) at 10uM” value is given as -30.9%.
For `COc1ccc(/C(O)=C2\C(=O)C(=O)N(CCN(C)C)C2c2cccc(OC)c2OC)cc1Cl` (stereo not drawn) the value was 3.53%.
The same measure for `NC(=O)/C(=C\c1ccccc1)NC(=O)/C=C/c1ccccc1`: 16.8%; for `COc1ccccc1OCC(=O)Nc1cccc(-c2nc3ccccc3o2)c1`: 0.23%; for `Cc1c(NC(=O)/C(=C\c2ccccc2)NC(=O)c2ccccc2)c(=O)n(-c2ccccc2)n1C`: 21.4%.
For `CC(=O)Nc1ccc2nc(NC(=O)c3ccc([N+](=O)[O-])o3)sc2c1` the value was 20.9%.
`COc1cc(OC)c(CN2CCN(c3ccc(F)cc3)CC2)cc1Br`: the “hERG current change (%, negative = inhibition) at 10uM” value was -70.3%.
The same measure for `COc1ccc(Nc2ccc(C(=O)O)cc2[N+](=O)[O-])cc1`: 4.18%; for `CC(=O)NC(Cc1ccc(O)cc1)C(=O)NN` (stereo not drawn): 28.2%; for `Cc1cc(C)nc(SCC(=O)Nc2ccc(S(=O)(=O)Nc3cc(C)on3)cc2)n1`: 21.1%.
As for `Cc1ccc(SCC(=O)Nc2ccc(C(=O)Nc3ccc(O)cc3)cc2)cc1`, the “hERG current change (%, negative = inhibition) at 10uM” value was found to be 10.1%.
The same measure for `O=C(O)Cn1nnc(-c2ccc(OCc3ccccc3)cc2)n1`: 23.9%; for `CCc1ccc(N2CC(C(=O)NNC(=O)c3ccc(F)cc3)CC2=O)cc1` (stereo not drawn): -14.5%; for `COC(=O)c1ccc2nc(C3CCCCC3)c3c(c2c1)CCC3`: 7.96%.
The same measure for `CC(=O)NC(CCS(C)(=O)=O)C(=O)Nc1ccc(Cl)c(Cl)c1` (stereo not drawn): 0.279%; for `CCOC(=O)CN1C(=O)N[C@@H](c2cccc(C(F)(F)F)c2)[C@H](C(C)=O)[C@H]1C`: -0.00062%; for `O=C(COC(=O)Cc1ccccc1[N+](=O)[O-])NNC(=O)c1ccc([N+](=O)[O-])cc1`: -21.9%.
For `CCOc1ccc(C2C(C#N)=C(N)N3C(=C2C#N)Sc2ccccc23)cc1` (stereo not drawn) the value was 9.5%; for `Cc1ccc(-c2c(C#N)c(N)n(-c3ccccc3)c(=O)c2C#N)cc1`, 20.3%; for `Brc1ccc(CSc2nnc(Cc3c[nH]c4ccccc34)o2)cc1`, -22.2%.
`Cc1ccnn1-c1ccc(C(=O)N2CCCN(S(=O)(=O)c3ccc(F)cc3)CC2)cc1`: the “hERG current change (%, negative = inhibition) at 10uM” value was -69.7%.
For `Cc1c(NC(=O)CSc2nc3ccccc3s2)c(=O)n(-c2ccccc2)n1C` the value was -20.7%; for `Cn1cc(/C=C2\C(=O)NC(=O)N(c3ccccc3)C2=O)c2ccccc21`, 5.33%.
With `CN(C(=O)COC(=O)C1CCN(S(=O)(=O)c2c(Cl)cccc2Cl)CC1)C1CCCCC1`, the “hERG current change (%, negative = inhibition) at 10uM” value was -31.9%.
`CC(CNC(=O)CCn1c(=O)c2cccn2c2ccc(F)cc21)c1ccccc1` (stereo not drawn): the “hERG current change (%, negative = inhibition) at 10uM” value is given as 4.23%.
The same measure for `COc1ccc(N2C(=O)CC(SCCc3nc4ccccc4[nH]3)C2=O)cc1` (stereo not drawn): -32%.
For `O=C(CCc1nnc(CCc2ccccc2)o1)N1CCCCC1CCn1cccn1` (stereo not drawn) the value was -51.1%.
With `Cc1ccc(C(=O)N2N=C(c3ccc(NS(C)(=O)=O)cc3)CC2c2cccs2)cc1` (stereo not drawn), the “hERG current change (%, negative = inhibition) at 10uM” value is reported as -23.1%.
The same measure for `Cc1nn(C)c(C)c1NC(=O)COc1ccc(Cl)cc1`: -4.78%.
For `Cc1ccc(F)cc1NC(=O)c1ccc(NS(=O)(=O)c2ccc(Br)s2)cc1` the value was -70%; for `CCOC(=O)c1ccccc1NC(=O)c1cccc(F)c1`, 1.04%.
For the compound `CC(C)NC(=O)c1[nH]nc2c1CCc1ccccc1-2`, the “hERG current change (%, negative = inhibition) at 10uM” value was -2.37%.
